In PubChem BioAssay AID1346428 (National Center for Advancing Translational Sciences (NCATS), 2018):
Out of some 48,000 compounds screened, about 1,200 (2.5%) were called active. Another 2% or so got no clear call; they are omitted.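 The calls were made as follows: active = activation of at least 60% and not above a set upper limit (about 1 call in 100 departs from these limits); inconclusive = activation of 40% to 60%, or above that upper limit; inactive = activation under 40%.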 The list shows a part of the results.

Target: Probable G-protein coupled receptor 32 (Homo sapiens) (UniProt O75388)
Sequence of UniProt O75388 (O75388 whole entry, looked up): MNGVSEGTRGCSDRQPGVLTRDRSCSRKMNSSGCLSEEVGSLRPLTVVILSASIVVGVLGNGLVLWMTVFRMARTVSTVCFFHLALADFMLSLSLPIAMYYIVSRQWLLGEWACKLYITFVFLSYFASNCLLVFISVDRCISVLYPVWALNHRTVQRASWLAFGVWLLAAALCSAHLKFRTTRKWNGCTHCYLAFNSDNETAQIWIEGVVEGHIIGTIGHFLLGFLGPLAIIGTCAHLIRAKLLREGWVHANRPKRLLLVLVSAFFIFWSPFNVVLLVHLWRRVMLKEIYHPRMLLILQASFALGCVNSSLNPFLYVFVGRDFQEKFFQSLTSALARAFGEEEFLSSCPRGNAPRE
Assay: qHTS for Agonists of Human Resolvin D1 Receptor DRV1; also: 0% is about no effect
Settings: CHO-K1 GPR32 beta-arrestin PathHunter luminescence, 90 min; at 76.9 µM; active compounds read high; zero percent set by DMSO-only wells
Outline: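 PathHunter enzyme-fragment complementation, CHO-K1 GPR32 stable line; 2,500 cells/well, overnight attach; cpd 90 min 37 °C 5% CO2; detection reagent 1 h RT; chemiluminescence. DMSO = EC0.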

activation, inactive:
COc1ccccc1C(=O)OCc1cc(=O)n2nc(C(C)C)sc2n1 0%, CC1=Nc2cc(C(=O)NCCc3ccc(Cl)cc3)ccc2Sc2c(C)ccc(C)c21 -15%, COc1ccc(-c2noc(-c3ccc(NCC4CCCO4)c([N+](=O)[O-])c3)n2)cc1OC (stereo not drawn) 30.9%, COc1ccccc1CNC(=O)c1oc2ccc3c(c2c1C)C(=O)CC(C)(C)O3 -26.5%, CC(=O)Nc1ccc(NC(=O)CCS(=O)(=O)c2ccc3c(c2)CC(=O)N3C)cc1 0%, CCOC(=O)CC(=O)CSc1nc2ccccc2c(=O)n1CCc1ccc(S(N)(=O)=O)cc1 -5.11%, CC1CCCCN1CCCNC(=O)c1cc(Sc2ccc(Cl)cc2)nc2ccccc12 (stereo not drawn) -21.5%, O=S(=O)(c1ccc(-c2cnc(C3CC3)o2)cc1)N1CCN(c2cccc(Cl)c2)CC1 -1.75%, Cc1cccc(S(=O)Cc2ccc(C(=O)NC3CCCCCC3)o2)c1 (stereo not drawn) -15.1%, CCOc1ccccc1C(=O)Nc1cc(-c2ccc(C)cc2)no1 -12.2%, Cc1ccc(C(=O)Nc2ccc(C(=O)OCc3cc(=O)n4c5c(sc4n3)CCCC5)cc2)cc1 -20.1%, Cc1c(-c2ccccc2)n(-c2ccccc2O)c2nc3c(c(=O)n(C)c(=O)n3C)n12 -17.1%, CCCOc1ccc(C2=NC(c3ccc(F)cc3)=Nc3ccc(OC)cc3N2)cc1 -9.13%, CC[N+](CC)(CCNC(=O)C(=O)NCC[N+](CC)(CC)Cc1ccccc1Cl)Cc1ccccc1Cl -5.91%, CCc1cccc(C)c1NC(=O)C1=C(C)C(=O)OC12CCC(C)CC2 (stereo not drawn) -13.6%, Cc1ccc2c(c1)c(=O)c(S(=O)(=O)c1ccc(C)c(C)c1)cn2CC(=O)Nc1ccccc1 6.47%, O=C(c1ccc2c(c1)N(Cc1ccccc1)C(=O)c1ccccc1S2=O)N1CCC(Cc2ccccc2)CC1 (stereo not drawn) 19.4%, COc1ccccc1Nc1ncc(C(=O)Nc2ccc(OC)c(OC)c2)c2ccccc12 2.17%, COc1ccc(NC(=O)NCC2CCN(Cc3ccccc3F)CC2)c(OC)c1 -7.81%, COc1ccccc1CNC(=O)c1cnc2sc(N3CCOCC3)nn2c1=O -9.32%, COc1ccc(N2CCN(C(=O)Cn3nc(Cc4cccnc4)c4ccccc4c3=O)CC2)cc1 -8.06%, CC(=O)N[C@H]1[C@H]([C@H](O)[C@H](O)CO)OC(C(=O)O)=C[C@@H]1N=C(N)N -0.0498%, Cc1ccc(Nc2ncnc3c2nc2n3CCCC2)c(Br)c1 -11.4%, Cn1cc(C(=O)NCCc2ccc(Cl)cc2)c(=O)c2cc(S(=O)(=O)N3CCCCC3)ccc21 -0.505%, COC(=O)c1ccc(Cn2nnc3c(=O)[nH]c(C4CCCN(S(=O)(=O)c5ccccc5)C4)nc32)cc1 (stereo not drawn) 1.48%, COc1ccc2nc(N(Cc3cccnc3)C(=O)COc3ccccc3)sc2c1 -27.6%, COC(=O)c1cc(S(=O)(=O)N2CCN(c3ccc(F)cc3)CC2)cn1C 31.6%, COc1ccccc1CNC(=O)c1ccc2c(c1)CCN2S(=O)(=O)c1ccc(Cl)cc1 -10.3%, O=C(O)c1ccc2c(c1)N(Cc1ccc(F)cc1Cl)C(=O)c1ccccc1S2 1.49%, COc1ccc(CCNC(=O)c2cc(S(=O)(=O)N3CCCC(C)C3)cn2C)cc1OC (stereo not drawn) 34%, N=C(N)SCCN 12.5%, COc1ccc(NC(=O)CCS(=O)(=O)c2nc(-c3ccc4c(c3)OCO4)cc(C(F)(F)F)n2)c(OC)c1 -6.89%, CC(C)N(Cc1ccccc1)C(=O)CN1C(=O)COc2ccc(S(=O)(=O)N3CCCCCC3)cc21 -53.1%, CCN(C(=O)c1cnc(N2CCOCC2)c2ccccc12)c1cc(C)ccc1C -17.8%, CCOc1ccccc1NC(=O)c1ccc2c(Cl)c3c(nc2c1)CCCC3 34.8%, Cc1cc(NC(=O)C(C)(C)Oc2ccc(Cl)cc2)cc(-c2nc3ncccc3o2)c1O -20.9%, CC(=O)Nc1ccc(NC(=O)CCC(=O)c2ccc(C)cc2)cc1 8.91%, O=C(OCc1cc(=O)n2nc(-c3cccs3)sc2n1)c1ccccc1Br 2.76%, CCOc1ccc(-c2nnc(SCC(=O)NCCc3ccccc3)nc2-c2ccc(OCC)cc2)cc1 -6.72%, COc1cccc(CNc2nc3c(-c4cccc(C)c4)nnn3c3ccccc23)c1 -12.6%, CCOc1ccccc1NC(=O)c1cnc(N2CCOCC2)c2ccccc12 -22.5%, COc1ccc(OCc2nc3c4c(-c5ccc(OC)cc5)c(-c5ccc(OC)cc5)oc4ncn3n2)cc1 1.54%, CNc1oc(-c2ccc(COc3ccc(C)cc3)o2)nc1C#N 5.06%, CCCn1c2ccccc2c2cnn(CC(=O)Nc3ccc(C)cc3Br)c(=O)c21 -15.5%, Cc1cc2ccccc2n2c(SCC(=O)Nc3cccc(C(F)(F)F)c3)nnc12 -9.13%, CCOC(=O)c1ccc(NC(=O)CSc2nccn2Cc2ccc(OC)cc2)cc1 -5.88%, Cc1cc(C)cc(C(=O)Nc2nnc3n2CCS3)c1 -125%, CC(=O)c1cccc(NC(=O)c2c(C)nn(-c3ccc(F)cc3)c2-n2cccc2)c1 -3.44%, COC(=O)c1cc(NC(=O)c2ccc3c(c2)N(Cc2cccc(Cl)c2)C(=O)c2ccccc2S3=O)cc(C(=O)OC)c1 (stereo not drawn) -16.2%, CCCCCN1C(C(=O)c2ccccc2)=C(NC(C)=O)c2ccccc2S1(=O)=O -8.53%, O=C(CSc1ncc2c(n1)-c1cc(Cl)ccc1N(Cc1ccccc1F)S2(=O)=O)Nc1cccc(C(F)(F)F)c1 -16.2%, Cc1cc(Cl)ccc1OCC(=O)N(Cc1ccc(N(C)C)cc1)CC1CCCO1 (stereo not drawn) -3.24%, CC(C)Nc1ccc(-c2nc(-c3ccccn3)no2)cc1[N+](=O)[O-] 12.1%
